Source: PubChem BioAssay (NCI)
Where “and” joins values, the source holds several entries; their conditions need not be identical. Equal entries are not always repeated.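 A five-concentration, 48-hour dose response in 96-well plates underlies each endpoint, interpolated linearly between surrounding concentrations. GI50: concentration for 50% inhibition of growth. TGI: concentration producing complete growth inhibition.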 Calls of active or inactive are those of the source.

Assays:
Assay in all cases: NCI tumour cell line growth inhibition, 48 h
UACC-257 melanoma = tested on: UACC-257 melanoma
SN12K1 renal = tested on: SN12K1 renal
SK-MEL-28 melanoma = tested on: SK-MEL-28 melanoma
NCI-H23 lung = tested on: NCI-H23 lung
HL-60(TB) leukemia = tested on: HL-60(TB) leukemia
HOP-18 NSCLC = tested on: HOP-18 NSCLC
SW-620 colon = tested on: SW-620 colon
SF-539 CNS = tested on: SF-539 CNS
COLO 205 colon = tested on: COLO 205 colon
IGROV1 ovarian = tested on: IGROV1 ovarian
MDA-MB-231 breast = tested on: MDA-MB-231 breast
BT-549 breast = tested on: BT-549 breast
HS 578T breast = tested on: HS 578T breast
LOX IMVI melanoma = tested on: LOX IMVI melanoma
RPMI-8226 leukemia = tested on: RPMI-8226 leukemia
DMS 273 small cell lung = tested on: DMS 273 small cell lung
A549 NSCLC = tested on: A549 NSCLC
P388 leukemia = tested on: P388 leukemia
ACHN renal = tested on: ACHN renal
EKVX NSCLC = tested on: EKVX NSCLC
SNB-78 CNS = tested on: SNB-78 CNS
SR leukemia = tested on: SR leukemia
DLD-1 colon = tested on: DLD-1 colon
DU-145 prostate = tested on: DU-145 prostate
UO-31 renal = tested on: UO-31 renal
OVCAR-5 ovarian = tested on: OVCAR-5 ovarian
K-562 leukemia = tested on: K-562 leukemia
786-0 renal = tested on: 786-0 renal
OVCAR-4 ovarian = tested on: OVCAR-4 ovarian
P388/ADR leukemia = tested on: P388/ADR leukemia
HCT-15 colon = tested on: HCT-15 colon
HT29 colon = tested on: HT29 colon
KM20L2 colon = tested on: KM20L2 colon
M14 melanoma = tested on: M14 melanoma
NCI-H460 lung = tested on: NCI-H460 lung
KM12 colon = tested on: KM12 colon
NCI-H226 lung = tested on: NCI-H226 lung
MCF7 breast = tested on: MCF7 breast
SK-MEL-2 melanoma = tested on: SK-MEL-2 melanoma
OVCAR-8 ovarian = tested on: OVCAR-8 ovarian
UACC-62 melanoma = tested on: UACC-62 melanoma
CAKI-1 renal = tested on: CAKI-1 renal
NCI/ADR-RES ovarian = tested on: NCI/ADR-RES ovarian
SNB-75 CNS = tested on: SNB-75 CNS
SK-MEL-5 melanoma = tested on: SK-MEL-5 melanoma
MDA-N = tested on: MDA-N
HCC-2998 colon = tested on: HCC-2998 colon
XF 498 CNS = tested on: XF 498 CNS
A498 renal = tested on: A498 renal
PC-3 prostate = tested on: PC-3 prostate
U251 CNS = tested on: U251 CNS
HOP-92 NSCLC = tested on: HOP-92 NSCLC
DMS 114 small cell lung = tested on: DMS 114 small cell lung
SF-295 CNS = tested on: SF-295 CNS
SN12C renal = tested on: SN12C renal
OVCAR-3 ovarian = tested on: OVCAR-3 ovarian
MALME-3M melanoma = tested on: MALME-3M melanoma
MDA-MB-435 = tested on: MDA-MB-435
SF-268 CNS = tested on: SF-268 CNS
CCRF-CEM leukemia = tested on: CCRF-CEM leukemia
MOLT-4 leukemia = tested on: MOLT-4 leukemia
HOP-62 NSCLC = tested on: HOP-62 NSCLC

Structure (SMILES): COc1cc2c(c(OC)c1OC)-c1ccc(OC)c(=O)cc1[C@@H](N)CC2
- TGI (UACC-257 melanoma): 81600 nM and > 250000 nM
- TGI (SN12K1 renal): 25 nM
- TGI (SK-MEL-28 melanoma): > 250000 nM
- GI50 (NCI-H23 lung): 67.5 nM and 22.3 nM and 25 nM
- TGI (NCI-H23 lung): 4510 nM and 16400 nM
- GI50 (HL-60(TB) leukemia): 21.8 nM and 25 nM
- TGI (HL-60(TB) leukemia): 57 nM and 41.4 nM
- GI50 (HOP-18 NSCLC): inactive
- TGI (HOP-18 NSCLC): > 250000 nM
- GI50 (SW-620 colon): 36.7 nM and 44.5 nM
- TGI (SW-620 colon): > 250000 nM
- GI50 (SF-539 CNS): 24.8 nM and 31 nM
- TGI (SF-539 CNS): 186 nM and 46 nM and 78.1 nM
- GI50 (COLO 205 colon): 47.8 nM and 55.8 nM and 25.1 nM
- TGI (COLO 205 colon): 175 nM and 138 nM and 68.4 nM
- GI50 (IGROV1 ovarian): 95.1 nM
- TGI (IGROV1 ovarian): > 250000 nM
- GI50 (MDA-MB-231 breast): 35 nM
- TGI (MDA-MB-231 breast): 874 nM
- TGI (BT-549 breast): 679 nM
- TGI (HS 578T breast): 3660 nM
- GI50 (LOX IMVI melanoma): 66 nM
- TGI (LOX IMVI melanoma): 79900 nM
- GI50 (RPMI-8226 leukemia): 47 nM and 35.7 nM
- TGI (RPMI-8226 leukemia): 74600 nM and 116000 nM
- GI50 (DMS 273 small cell lung): < 10 nM and 25 nM
- TGI (DMS 273 small cell lung): 73.2 nM
- GI50 (A549 NSCLC): 36.6 nM and 34.2 nM
- TGI (A549 NSCLC): > 250000 nM
- TGI (P388 leukemia): 5550 nM
- GI50 (ACHN renal): 88.4 nM
- GI50 (EKVX NSCLC): 25 nM
- TGI (EKVX NSCLC): > 250000 nM
- GI50 (SNB-78 CNS): 14.9 nM and 43.2 nM
- TGI (SNB-78 CNS): > 250000 nM
- GI50 (SR leukemia): 54.6 nM
- GI50 (DLD-1 colon): 35.2 nM and 34.2 nM
- TGI (DLD-1 colon): > 250000 nM
- GI50 (DU-145 prostate): 45.9 nM
- TGI (DU-145 prostate): 273 nM and 93.4 nM
- GI50 (UO-31 renal): 343 nM
- TGI (UO-31 renal): 240000 nM
- GI50 (OVCAR-5 ovarian): inactive
- TGI (OVCAR-5 ovarian): > 250000 nM
- GI50 (K-562 leukemia): 38 nM and 32.7 nM
- TGI (K-562 leukemia): 82100 nM and 61200 nM
- GI50 (786-0 renal): 43 nM
- TGI (OVCAR-4 ovarian): 243000 nM
- TGI (P388/ADR leukemia): 11800 nM
- GI50 (HCT-15 colon): 60.4 nM and 61.8 nM
- TGI (HCT-15 colon): 38200 nM and 7130 nM
- GI50 (HT29 colon): 27.5 nM and 12 nM and 25 nM
- GI50 (KM20L2 colon): 25 nM
- TGI (KM20L2 colon): 43.2 nM and 25 nM
- GI50 (M14 melanoma): 63.4 nM and 15.5 nM
- TGI (M14 melanoma): 10600 nM
- GI50 (NCI-H460 lung): 37 nM and 30.1 nM
- TGI (NCI-H460 lung): 29600 nM and 19400 nM
- GI50 (KM12 colon): 65.4 nM and 19.5 nM and 25 nM
- GI50 (NCI-H226 lung): 33.8 nM
- GI50 (MCF7 breast): 34.3 nM and 25 nM
- TGI (MCF7 breast): 167000 nM
- TGI (SK-MEL-2 melanoma): 988 nM and 1980 nM and 423 nM
- GI50 (OVCAR-8 ovarian): 42.3 nM
- TGI (OVCAR-8 ovarian): 15000 nM and 2540 nM
- GI50 (UACC-62 melanoma): 25.7 nM
- TGI (UACC-62 melanoma): 43900 nM and 6650 nM
- GI50 (CAKI-1 renal): 29.3 nM
- GI50 (NCI/ADR-RES ovarian): inactive
- TGI (NCI/ADR-RES ovarian): 1100 nM and 1980 nM
- GI50 (SNB-75 CNS): 28.8 nM and 25 nM
- TGI (SNB-75 CNS): 115 nM
- GI50 (SK-MEL-5 melanoma): 31.2 nM and 15.9 nM and 25 nM
- GI50 (MDA-N): 12.5 nM and < 10 nM
- TGI (MDA-N): 37.6 nM and 311 nM
- GI50 (HCC-2998 colon): 25.8 nM and 25 nM
- GI50 (XF 498 CNS): 39 nM and 25 nM
- GI50 (A498 renal): 28.8 nM
- TGI (PC-3 prostate): 22200 nM
- GI50 (U251 CNS): 43 nM and 35.3 nM
- TGI (U251 CNS): 8330 nM and 17500 nM
- GI50 (HOP-92 NSCLC): 142 nM and 25 nM
- TGI (HOP-92 NSCLC): 28.6 nM
- TGI (DMS 114 small cell lung): 103 nM and 87 nM
- GI50 (SF-295 CNS): 28.1 nM and 12.3 nM and 28 nM
- TGI (SF-295 CNS): 64.8 nM and 123 nM and 38.9 nM
- GI50 (SN12C renal): 48.5 nM and 50.7 nM
- TGI (SN12C renal): 110000 nM
- GI50 (OVCAR-3 ovarian): 49.9 nM and 25 nM
- TGI (OVCAR-3 ovarian): 21.8 nM and 38.4 nM
- GI50 (MALME-3M melanoma): 85.1 nM and 25 nM
- TGI (MALME-3M melanoma): 99400 nM and > 250000 nM
- GI50 (MDA-MB-435): 8.49 nM
- TGI (MDA-MB-435): 23.8 nM and 27.1 nM
- GI50 (SF-268 CNS): 62.4 nM and 54.9 nM
- TGI (SF-268 CNS): > 250000 nM
- GI50 (CCRF-CEM leukemia): 39.1 nM and 132 nM and 25 nM
- TGI (CCRF-CEM leukemia): 59600 nM
- GI50 (MOLT-4 leukemia): 25 nM
- TGI (MOLT-4 leukemia): 52300 nM and 11600 nM
- GI50 (HOP-62 NSCLC): 49.9 nM and 54.4 nM
- TGI (HOP-62 NSCLC): > 250000 nM
